Assay results taken from publication PMC9303311 (Nucleic Acids Research, 2022).

Experiments:
cross-linking [1] = target: the molecule itself; assay: cross-linking
cross-linking [2] = target: the molecule itself; assay: cross-linking; remark: listed apart in the source

B1: Human SAMHD1 Δ[…] (C-terminal truncation retaining Thr592) (domain or fragment)
chain: not shown
half-life of tetramer dissociation (cross-linking [1]): 260 min | stoichiometry N (cross-linking [1]): 4

B2: Human SAMHD1 T592E (phosphomimetic variant), full length (enzyme)
chain: not shown
half-life of tetramer dissociation (cross-linking [1]): ~8.8 min | stoichiometry N (cross-linking [1]): 4 | half-life of tetramer dissociation with ssDNA (cross-linking [2]): 1.6 min

B3: Human SAMHD1 Δ[…] (C-terminal truncation lacking Thr592) (domain or fragment)
chain: not shown
half-life of tetramer dissociation (cross-linking [1]): ~4.2 min | stoichiometry N (cross-linking [1]): 4
